# The full ranking holds about 81,000 sequences; the median of “one-hybrid fitness for binding parS DNA” is about -0.17, and the highest 2% start at about 0.51. Some of the results follow.
# B1: Caulobacter ParB omega fusion; a variant is named by its letters at X, in order, B8GW30 (parent)
# chain: MESVVVGEPGMSEGRRGLGRGLSALLGEVDAAPAQAPGEQLGGSREAPIEILQRNPDQPRRTFREEDLEDLSNSIREKGVLQPILVRPSPDTAGEYQIVAGERAWRAAQRAGLKTVPIMVRELDDLAVLEIGIIENVQRADLNVLEEALSYKVLMEKFERTQENIAQTIGKSXSHVANXMRLLXLPDEVQSYLVSGELTAXHARAIAAAADPVALAKQIIEGGLSVRETEALARKAPNLSAGKSKGGRPPRVKDTDTQALESDLSSVLGLDVSIDHRGSTGTLTITYATLEQLDDLCNRLTRGI
# Variants of: B1
# Assay: one-hybrid fitness for binding parS DNA (scaled: cognate 1, non-cognate 0); higher = stronger binding
# Settings: with parS DNA site
# In short: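 Caulobacter ParB libraries with four specificity codons randomised were screened by bacterial one-hybrid selection in the E. coli USO strain, using a HIS3 reporter whose site lies 19 bp from the promoter. Selection ran for 48 hours at 37°C on M9 lacking histidine, with 0.1 mM IPTG and 5 mM 3-AT. Plasmids were Illumina-sequenced before and after selection, three replicate libraries were pooled, and variants with under 10 reads were dropped. Fitness is the log change in each variant's read ratio to wild type, rescaled against the cognate and non-cognate sites.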
row,Variant,one-hybrid fitness for binding parS DNA
1,TYHV,≤ 0.2
2,MHCE,≤ 0.2
3,KALM,≤ 0.2
4,VTCC,≤ 0.2
5,HDQN,≤ 0.2
6,NGQS,≤ 0.2
7,LMIA,≤ 0.2
8,QNAT,≤ 0.2
9,YVAC,≤ 0.2
10,LLAL,≤ 0.2
11,DFAR,≤ 0.2
12,YVMC,≤ 0.2
13,ISMC,≤ 0.2
14,HQVR,≤ 0.2
15,DWRR,≤ 0.2
16,TPYW,≤ 0.2
17,ATDY,≤ 0.2
18,TLNW,≤ 0.2
19,FHRY,≤ 0.2
20,RISG,1.01
21,PCSN,≤ 0.2
22,AAKG,≤ 0.2
23,NFVC,≤ 0.2
24,VLTK,≤ 0.2
25,GKQS,≤ 0.2

row,Variant,one-hybrid fitness for binding parS DNA
1,MVPS,≤ 0.2
2,GYKR,≤ 0.2
3,GNSS,≤ 0.2
4,GSGV,≤ 0.2
5,CSQT,≤ 0.2
6,HDIR,≤ 0.2
7,NPSE,≤ 0.2
8,FYPD,≤ 0.2
9,FFHS,≤ 0.2
10,TSYN,≤ 0.2
11,RSSI,≤ 0.2
12,IWRC,≤ 0.2
13,IHSF,≤ 0.2
14,PGKS,≤ 0.2
15,CSSP,≤ 0.2
16,LAYV,≤ 0.2
17,SSDR,≤ 0.2
18,DSVV,≤ 0.2
19,LLWY,≤ 0.2
20,MSNV,≤ 0.2
21,PLYC,≤ 0.2
22,MFMR,≤ 0.2
23,HRAG,0.25
24,AERE,≤ 0.2
25,LIGG,≤ 0.2

row,Variant,one-hybrid fitness for binding parS DNA
1,INES,≤ 0.2
2,RDKE,≤ 0.2
3,VAPK,≤ 0.2
4,REMD,≤ 0.2
5,QKHH,≤ 0.2
6,EVVM,≤ 0.2
7,HKGT,≤ 0.2
8,TDYC,≤ 0.2
9,SMVV,≤ 0.2
10,WNRR,≤ 0.2
11,HLKA,≤ 0.2
12,QFQG,≤ 0.2
13,ISRV,≤ 0.2
14,RTPS,0.822
15,MAVR,≤ 0.2
16,HMSL,≤ 0.2
17,PRSK,≤ 0.2
18,RTHE,≤ 0.2
19,VPDR,≤ 0.2
20,PLLS,≤ 0.2
21,NFDS,≤ 0.2
22,EGWS,≤ 0.2
23,LEHT,≤ 0.2
24,DSYA,≤ 0.2
25,WNDS,≤ 0.2

row,Variant,one-hybrid fitness for binding parS DNA
1,QEHM,≤ 0.2
2,RIAF,0.213
3,KSNS,≤ 0.2
4,QLLY,≤ 0.2
5,DIGF,≤ 0.2
6,YTMG,≤ 0.2
7,VAGH,≤ 0.2
8,QPNF,≤ 0.2
9,HTTF,≤ 0.2
10,DVAR,≤ 0.2
11,QRCV,≤ 0.2
12,TCCG,≤ 0.2
13,RVPD,≤ 0.2
14,GTEN,≤ 0.2
15,DVGT,≤ 0.2
16,IRMC,≤ 0.2
17,YDFT,≤ 0.2
18,QMVT,≤ 0.2
19,TKCS,≤ 0.2
20,ADTN,≤ 0.2
21,PTCT,≤ 0.2
22,QPWV,≤ 0.2
23,QSGW,≤ 0.2
24,PYGP,≤ 0.2
25,VNLR,≤ 0.2

row,Variant,one-hybrid fitness for binding parS DNA
1,TQNP,≤ 0.2
2,FVTP,≤ 0.2
3,TRFN,≤ 0.2
4,TCEE,≤ 0.2
5,WPCS,≤ 0.2
6,CSIL,≤ 0.2
7,KLCP,≤ 0.2
8,QAFG,≤ 0.2
9,LWGT,≤ 0.2
10,AASE,≤ 0.2
11,HYPN,≤ 0.2
12,QMVY,≤ 0.2
13,RSFS,1.01
14,NTLF,≤ 0.2
15,STHV,≤ 0.2
16,MQRC,≤ 0.2
17,AELS,≤ 0.2
18,EMFS,≤ 0.2
19,TWDS,≤ 0.2
20,IFSG,≤ 0.2
21,WPLS,≤ 0.2
22,TTDM,≤ 0.2
23,VYIM,≤ 0.2
24,YWPY,≤ 0.2
25,EHLA,≤ 0.2

row,Variant,one-hybrid fitness for binding parS DNA
1,IPTV,≤ 0.2
2,YYRR,≤ 0.2
3,QGLR,≤ 0.2
4,YRCC,≤ 0.2
5,DIHT,≤ 0.2
6,SFAV,≤ 0.2
7,IYNN,≤ 0.2
8,NIGT,≤ 0.2
9,TEMS,≤ 0.2
10,DIDL,≤ 0.2
11,RKPR,≤ 0.2
12,TLPM,≤ 0.2
13,MNIS,≤ 0.2
14,SHAT,≤ 0.2
15,EQNR,≤ 0.2
16,VRFV,≤ 0.2
17,HDKE,≤ 0.2
18,VTSW,≤ 0.2
19,DVGK,0.252
20,NDSK,≤ 0.2
21,RSNI,≤ 0.2
22,YVTG,≤ 0.2
23,QTLA,≤ 0.2
24,NYTY,≤ 0.2
25,ESAT,≤ 0.2

row,Variant,one-hybrid fitness for binding parS DNA
1,HTVG,≤ 0.2
2,IREG,≤ 0.2
3,RGPV,≤ 0.2
4,NTKR,≤ 0.2
5,IDPG,≤ 0.2
6,YNQT,≤ 0.2
7,SVIR,≤ 0.2
8,QHDL,≤ 0.2
9,EGTR,≤ 0.2
10,PISY,≤ 0.2
11,PNLH,≤ 0.2
12,RWID,≤ 0.2
13,FYQG,≤ 0.2
14,TCRC,≤ 0.2
15,WKVV,≤ 0.2
16,ATGC,≤ 0.2
17,FRGS,≤ 0.2
18,SLDQ,≤ 0.2
19,TKAA,≤ 0.2
20,PPFI,≤ 0.2
21,PAAN,≤ 0.2
22,ESSA,≤ 0.2
23,NMIG,≤ 0.2
24,PVDY,≤ 0.2
25,SIQR,≤ 0.2

row,Variant,one-hybrid fitness for binding parS DNA
1,CGMS,≤ 0.2
2,MDAS,≤ 0.2
3,QVIG,≤ 0.2
4,RGEA,≤ 0.2
5,QCEC,≤ 0.2
6,MSYC,≤ 0.2
7,VDNC,≤ 0.2
8,TLSL,≤ 0.2
9,PIET,≤ 0.2
10,QCRT,≤ 0.2
11,TGNM,≤ 0.2
12,PEPQ,≤ 0.2
13,CTGC,≤ 0.2
14,SRCL,≤ 0.2
15,QSTM,≤ 0.2
16,SAVN,≤ 0.2
17,RTDS,0.989
18,GGYY,≤ 0.2
19,QNHY,≤ 0.2
20,DPSN,≤ 0.2
